Laboratory results from paper PMC4336329 (PLoS ONE, 2015).
Hit rate of the full screen: of about 310,000 compounds, about 14,000 (4.5%) showed an effect of 50% or more. Effects have a minus sign here. The list shows a part of the results.

biological target: human ether-à-go-go-related gene (hERG) potassium channel (human, UniProt Q12809); assay: primary screen, population patch clamp on CHO cells stably expressing hERG
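Also: peak tail current of the secondary pulse compared with the same well before compound.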

Chain of human ether-à-go-go-related gene (hERG) potassium channel (Q12809 whole entry, looked up): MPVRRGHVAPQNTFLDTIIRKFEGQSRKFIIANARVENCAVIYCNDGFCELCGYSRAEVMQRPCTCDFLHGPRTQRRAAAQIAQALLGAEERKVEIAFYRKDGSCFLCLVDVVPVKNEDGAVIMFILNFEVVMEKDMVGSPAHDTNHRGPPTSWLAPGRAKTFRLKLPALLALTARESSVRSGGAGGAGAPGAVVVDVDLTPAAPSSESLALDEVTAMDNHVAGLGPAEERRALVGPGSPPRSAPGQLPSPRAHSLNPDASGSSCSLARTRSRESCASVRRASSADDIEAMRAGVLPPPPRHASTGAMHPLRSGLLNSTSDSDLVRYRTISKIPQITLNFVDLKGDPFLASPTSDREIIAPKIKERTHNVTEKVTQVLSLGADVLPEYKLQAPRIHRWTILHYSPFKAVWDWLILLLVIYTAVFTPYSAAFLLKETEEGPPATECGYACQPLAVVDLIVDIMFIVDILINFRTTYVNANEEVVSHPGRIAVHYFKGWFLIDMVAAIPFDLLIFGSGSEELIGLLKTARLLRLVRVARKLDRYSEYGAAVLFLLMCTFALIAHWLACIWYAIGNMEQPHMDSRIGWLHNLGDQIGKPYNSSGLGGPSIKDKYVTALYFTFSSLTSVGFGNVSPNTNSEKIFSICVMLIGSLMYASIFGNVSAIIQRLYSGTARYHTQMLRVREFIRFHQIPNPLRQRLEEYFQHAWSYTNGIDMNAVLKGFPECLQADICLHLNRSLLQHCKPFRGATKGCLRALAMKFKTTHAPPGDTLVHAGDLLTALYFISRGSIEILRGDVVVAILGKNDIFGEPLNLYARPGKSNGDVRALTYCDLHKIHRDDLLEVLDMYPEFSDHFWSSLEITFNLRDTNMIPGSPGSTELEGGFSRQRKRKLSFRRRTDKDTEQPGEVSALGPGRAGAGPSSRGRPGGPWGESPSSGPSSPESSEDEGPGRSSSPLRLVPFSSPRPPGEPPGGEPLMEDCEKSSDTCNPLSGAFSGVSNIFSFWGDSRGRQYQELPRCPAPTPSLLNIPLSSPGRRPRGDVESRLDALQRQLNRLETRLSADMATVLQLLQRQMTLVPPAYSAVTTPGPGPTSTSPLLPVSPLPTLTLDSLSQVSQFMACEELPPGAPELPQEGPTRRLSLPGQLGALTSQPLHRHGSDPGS

SMILES | hERG current change (%, negative = inhibition) at 10uM
CCCc1nnc(NC(=O)CCC(=O)N2CCN(CCOc3ccc(C)cc3)CC2)s1 | -51.2%
Cc1ccc2c(c1)/C(=C/c1ccc(F)cc1)C(=O)N2 | 10.5%
O=C(NCCNC(=O)c1ccc(-c2ccc(Cl)c(Cl)c2)o1)c1cnccn1 | -71.6%
CCCc1c(O)c2ccccc2[nH]c1=O | 17.3%
O=C(Cc1ccccc1)NCCS(=O)(=O)N1CCN(c2ccccc2)CC1 | 7.16%
COc1cc2c(c(O)c1OC)-c1c(cc(OC)c(OC)c1OC)C[C@@H](C)[C@@H](C)C2 | -78.6%
O=C(c1ccccc1)N1CCn2c1nc1ccccc12 | -5.17%
O=S(=O)(Nc1cccnc1)c1cc(Cl)ccc1Cl | 9.51%
Cc1nc2ccccn2c1C(=O)NN=C1C2CC3CC(C2)CC1C3 | -6.98%
CC(C)(C)CN1CCC(Oc2cccc(C(=O)N3CCC[C@H]3CO)c2)CC1 | 28.2%
COc1ccccc1-n1c(SCC(=O)N2CCOCC2)nc2ccccc2c1=O | -3.48%
O=C(NC(Cc1ccc2c(c1)OCO2)C(=O)NC(Cc1ccccc1)C(=O)O)c1ccccc1 (centres unmarked) | 7.03%
CCN1C(=O)/C(=C2\SC(=S)N(c3c(C)n(C)n(-c4ccccc4)c3=O)C2=O)c2ccccc21 | 9.96%
CC(OC(=O)C1CCN(c2ccc(C(F)(F)F)cn2)CC1)C(=O)NC1CCCCC1C (centres unmarked) | -9.07%
N#Cc1ccccc1NC1=CC(=O)CCC1 | 7.49%
O=C(Cc1ccccc1)NCC(=O)OCc1ccccc1F | 11.3%
CCSc1nnc(NC(=O)CSc2nnc(C)c(=O)n2N)s1 | -0.337%
COc1cc(C(O)CNC(C)C)cc(F)c1OC (centres unmarked) | 5.45%
Cc1ccc(C2=NS(=O)(=O)N(C)C(C(=O)NCc3ccccc3)=C2)cc1 | -0.52%
O=C(CSc1ccccn1)Nc1ccc2[nH]c(=O)[nH]c2c1 | 6.76%
CC(NC(=O)C1CCC(C)(C(=O)O)C1(C)C)c1ccccc1 (centres unmarked) | 10.7%
O=C(/C=C/c1ccco1)Nc1ccc(S(=O)(=O)N2CCOCC2)cc1 | 3.89%
COC(=O)COc1cccc(NC(=O)COc2ccccc2)c1 | 7.31%

SMILES | hERG current change (%, negative = inhibition) at 10uM
Cc1ccsc1/C=C1\SC(=S)N(CC2CCCO2)C1=O (centres unmarked) | 1.89%
O=C(Nc1nonc1NC(=O)c1cccs1)c1cccs1 | 19.2%
COc1ccc(C2C=C(c3ccccc3)Nc3nnnn32)cc1 (centres unmarked) | 10.2%
CC(=O)c1ccc(N=Nc2ccc(N)cc2)cc1 | 17.5%
CCN=C1S/C(=C\c2ccc(Sc3ccc(Cl)cc3)o2)C(=O)N1CC | -7.98%
CN(C(=O)COC(=O)/C=C/c1ccc(F)cc1)c1c(N)n(Cc2ccccc2)c(=O)[nH]c1=O | 10.3%
O=C(CCc1ccccc1)NCc1ccc(F)cc1 | 0.582%
O=C(CCCOc1ccccc1)N1CCN(C(=O)c2ccco2)CC1 | -35.4%
Cc1ccc2[nH]c(=O)c(CN(CCCN(C)C)C(=O)Nc3cccc(Cl)c3)cc2c1 | -53.6%
Clc1ccc(SCNc2ccccc2Cl)cc1 | 20.9%
CCOC(=O)C1CCN(S(=O)(=O)c2ccc3c(c2)N(C(C)=O)CC(C)S3)CC1 (centres unmarked) | -48%
CC(=O)Nc1nc(C)c(Cc2ccccc2)c(=O)[nH]1 | -1.04%
Cn1c(=O)[nH]c(=O)c2c1nc(SCC(O)CCl)n2Cc1ccccc1 (centres unmarked) | -22.4%
Oc1ccccc1-c1cc(-c2ccc(Cl)cc2)n[nH]1 | 19.2%
Cc1ccc(-c2[nH]c3cc(C(N)=O)ccc3c(=O)c2O)cc1 | 15.4%
COc1cccc(N2CCN(C(=O)Cn3c(=O)oc4ccccc43)CC2)c1 | -5.77%
COc1cccc(C(C(=O)NC2CCCCC2)N(Cc2ccco2)C(=O)c2ccccn2)c1 (centres unmarked) | -5.41%
COc1ccccc1C(=O)O/N=C(\N)c1ccc(Cl)cc1 | -11.4%
CCS(=O)(=O)N1CCN(c2ccc([N+](=O)[O-])c(NCC3CCCO3)c2)CC1 (centres unmarked) | -46.2%
CCN(CC)C(=O)C(Oc1ccc(S(=O)(=O)N2CCCC2)cc1[N+](=O)[O-])c1ccccc1 (centres unmarked) | -12.9%
COc1cc(C2C3=C(CC(C)(C)CC3=O)N(C)C(=O)N2C)cc(OC)c1OC (centres unmarked) | 7.08%
CCOC(=O)c1[nH]c2ccccc2c1NC(=O)CN1CCCCC1 | -33.6%
S=c1[nH]ncn1-c1ccccn1 | 16.7%

SMILES | hERG current change (%, negative = inhibition) at 10uM
Cc1ccc(C(=O)NCCN2CCOCC2)cc1 | 12%
Cc1ccc(S(=O)(=O)N2CCN(Cc3cc(=O)n4ccccc4n3)CC2)cc1C | -40.5%
CCOC(=O)c1sc(=S)n(C)c1C | 12%
COc1ccc(CC(=O)NNS(=O)(=O)c2ccc(F)cc2)cc1OC | 0.969%
COc1ccc(CCN(C)C(=O)C23CC4CC(CC(Cl)(C4)C2)C3)cc1OC | -12%
CC1CN(Cc2cc(=O)[nH]c(C3CC3)n2)CC(C)O1 (centres unmarked) | 18.9%
O=C(COc1ccc([N+](=O)[O-])cc1)Nc1ccc(CN2CCOCC2)cc1 | -52.3%
Cc1cc(C)c2c(CN3CCN(Cc4ccccc4)CC3)cc(=O)oc2c1.Cl | -66.9%
CC(CC(=O)N1CCN(c2ccccc2F)CC1)c1ccccc1 (centres unmarked) | -4.67%
Cn1ccnc1SCCNC(=O)C1CCC(=O)N(Cc2ccc(Cl)cc2)C1 (centres unmarked) | -3.3%
O=C(Cn1c(=O)oc2cc(S(=O)(=O)N3CCCC3)ccc21)N1CCN(c2ccccc2)CC1 | -0.111%
Cc1cccc(N(C)C(=O)CCS(=O)(=O)c2cccc3nonc23)c1 | -6.05%
CC(C)Cn1c(=O)c2ccccc2n2c(CCC(=O)NC3CCN(Cc4ccccc4)CC3)nnc12 | -39.4%
Cc1cc(NC(=O)c2cncc(Br)c2)no1 | 10.3%
CCC(C)N1C(=O)CN(C2CCCCCC2)C(=O)C1c1ccccc1F (centres unmarked) | 2.67%
CNC(=O)NC1CCCc2ccccc21 (centres unmarked) | 14%
COc1ccc(NC(=O)CN(C)C(=O)C(CCSC)NC(=O)c2ccccc2)cc1 (centres unmarked) | 5.37%
Cc1cccc(N2C(=O)CC(N3CCOCC3)C2=O)c1 (centres unmarked) | 11.8%
COc1ccc(NCc2ccsc2)cc1 | 2.52%
CC(=O)OCC(=O)[C@@]12OC(C)(C)O[C@@H]1C[C@H]1[C@@H]3C[C@H](F)C4=CC(=O)C=C[C@]4(C)[C@@]3(F)[C@@H](O)C[C@@]12C | 5.05%
Cc1oc(C)c(C(=O)Nc2ccc(CC(=O)O)cc2)c1C(=O)Nc1ccc(CC(=O)O)cc1 | 12.9%
CC(C)(C)c1cc(CNC2CS(=O)(=O)C[C@@H]2O)cc(C(C)(C)C)c1O (some centres unmarked) | 5.1%
COc1cc(Cl)ccc1S(=O)(=O)n1nc(C)cc1C | 2.21%

SMILES | hERG current change (%, negative = inhibition) at 10uM
Cc1cc(C)cc(NC(=O)c2ccc(CNc3c(N4CCOCC4)c(=O)c3=O)cc2)c1 | 4.46%
COc1ccc(NC(=O)Cn2nnc(-c3ccccc3N)n2)cc1OC | -1.88%
O=C(CC1Oc2ccc(Cl)cc2NC1=O)NC1CCCCCC1 (centres unmarked) | 6.76%
CCN1CCN(c2nc(Nc3ccccc3)nc(N)c2[N+](=O)[O-])CC1 | -63%
O=C1CCN(Cc2ccccc2)S(=O)(=O)c2c(F)cc(F)cc21 | -14.1%
COc1ccccc1/C=C\C=N\n1c(C2CCCCC2)n[nH]c1=S | -3.24%
O=C(Nc1nc2c(s1)CCCC2)Oc1ccccc1 | 14.3%
COC(=O)C1=C[C@@H](C(=O)OC)[C@@H]2C3=C(C(=O)[C@@]2(C)NC(=O)c2ccccc2)[C@H](C)C(C(=O)OC)=C(C(=O)OC)[C@@H]3C1 | -3.1%
N#CC1=C(Nc2ccccc2)SC=C(c2ccc(F)cc2)N=C1N1CCOCC1 | -10.8%
COc1ccc(/C(O)=C2/C(=O)C(=O)N(c3ncccn3)C2c2ccc(OC)cc2)cc1 (centres unmarked) | 16.2%
COC(=O)c1ccc(OC(=O)N2CCOCC2)cc1 | 13.8%
Cc1ccc(C(=O)NC(=S)N2CCN(C(=O)OC(C)(C)C)CC2)cc1Br | 14.2%
Cc1ccc(NC(=O)CCn2cccc2)cc1 | 2.67%
CCCOCCc1nnc(N)s1 | 21.7%
C=C(C)CNC(=S)N/N=C(\C)c1ccc(-n2ccnc2)cc1 | -37.7%
Nc1cc(N)cc(C(=O)Nc2ccc3c(c2)C(=O)NC3=O)c1 | 12.1%
CN1C(C(=O)N2CCC3(CC2)OCCO3)=CC(c2ccc(F)cc2)=NS1(=O)=O | 5.13%
COc1ccccc1C1CC(c2ccc(NS(C)(=O)=O)cc2)=NN1C(=O)c1ccccc1 (centres unmarked) | -50.9%
CC(=O)Nc1ccc(S(=O)(=O)n2nc(-c3ccc(C)cc3)nc2N)cc1 | 14.3%
Cc1oc2cc(O)cc(C)c2c(=O)c1-c1cnn(-c2ccccc2)c1 | 8.31%
